Reference: PubChem BioAssay AID1466 (National Center for Advancing Translational Sciences (NCATS), 2008)
Where “and” joins values, the source holds several entries; their conditions need not be identical. Equal values may be shown once. About 10 (0.005%) of roughly 200,000 compounds were called active. This list was built around the results that the source calls inconclusive (neither active nor inactive); the mix of calls is not that of the screen. Calls come from the whole dose curve; as a rule, active = well fitted inhibition curve with a large enough effect; inconclusive = small, poorly fitted or top-dose-only effect, or effect the other way, or another doubt; inactive = no such curve, though single readings can be large or run the other way. A potency beside an inconclusive call is a rough fit, not a confirmed value.

target: Lysosomal alpha-glucosidase (Homo sapiens) (UniProt P10253); assay: qHTS Assay for Inhibitors of Human alpha-Glucosidase as a Potential Chaperone Treatment of Pompe Disease; settings: purified human GAA, 4-MU-alpha-glucoside fluorescence; activity change, negative = inhibition: at 76.9 µM (top of the series) unless noted;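 for activity change, negative = inhibition: plate controls were uninhibited enzyme wells for no effect and no-enzyme background for full effect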
Method in brief: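 Fluorescence at Ex 365/Em 440 nm from 4-methylumbelliferone reported enzyme activity after 20 min at room temperature. Reactions used 4 nM enzyme and 400 uM substrate at pH 5.0; curves fitted with the Hill equation.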
Potency is the fitted concentration of half-maximal effect; tags give direction and shape of the fitted curve.

Activity change, negative = inhibition, inconclusive:
Cc1ccccc1OCCCC(=O)Nc1nncs1 -22.3% [inhibitor]
Cc1ccc(C)c(Nc2c(F)c(F)c(F)c(F)c2C(=O)O)c1 -16.4% [inhibitor]
CCn1cc([N+](=O)[O-])c(C(=O)NCc2ccc(Cl)cc2)n1 15.3% [activator]
CCC(=O)NC(c1cccs1)c1cc(Cl)c2cccnc2c1O (stereo not given) 18.6% [activator]
Cc1cccc(C)c1NC(=O)N1CCC(n2cnc3ccccc32)CC1 -16.2% [inhibitor]
CCCCC(CC)C(=O)Nc1ccc(C)c(O)c1 (stereo not given) 12.4% [activator]
COc1ccc(OC)c(N(CC(=O)Nc2cccc(C(F)(F)F)c2)S(C)(=O)=O)c1 0.933% [activator]
COc1ccc(CCNC(=O)c2cc(-c3ccc(Cl)c(Cl)c3)oc2C)cc1 15.1% [activator]
O=C(O)c1c2c(nc3ccccc13)/C(=C/c1ccc(O)cc1)CC2 -16.4% [inhibitor]
CC1CCN(C(=O)CN(C)S(=O)(=O)c2cccc3nsnc23)CC1 9% [activator]
CCCOc1ccc(N2C(=O)CC(N(CCc3ccc(OC)cc3)C(=O)/C=C/C(=O)O)C2=O)cc1 (stereo not given) 10.7% [activator]
CCCn1nc(NC(=O)CC(C)C)c2cc3ccccc3nc21 19.6% [activator]
OCC1(Cc2ccccc2)CCN(C2CCN(c3ccccc3F)CC2)CC1 -15.6% [inhibitor]
CCOCC(=O)Nc1cc(OC)c(Cl)cc1OC -18.1% [inhibitor]
COc1ccccc1N1CCN(/N=C/c2cccc(OC)c2O)CC1 14.4% [activator]
Cc1ccc(C(=O)NC(=S)NNC(=O)CC#N)cc1 23.4% [activator]

Activity change, negative = inhibition, inactive:
CCOC(=O)c1[nH]c2ccc(OC)cc2c1NS(=O)(=O)c1ccc(OC)cc1OC -0.938%
CC(=O)OCC[N+](C)(C)C -9.16% [at 15.4 µM] and -0.595% [at 15.4 µM]
O=C(O)CCCC(=O)N1N=C(c2ccccc2)CC1c1ccc2nccnc2c1 (stereo not given) -0.474%
N#C/C(=C\Nc1ccc(Cl)cn1)S(=O)(=O)c1ccccc1 -6.62%
CNC(=S)NNc1nncc2ccccc12 14.1%
CNNC(=S)Nc1cccc(C(F)(F)F)c1 -1.35%

Potency, inconclusive:
COc1ccc(NC(=O)CN2c3cccc4cccc(c34)S2(=O)=O)c(OC)c1 56.2 µM [inhibitor, single point]
O=[N+]([O-])c1ccc(Sc2cccc3cccnc23)c2cccnc12 44.7 µM [inhibitor, single point]
Cn1c(CCCOc2ccc(Cl)cc2Cl)n[nH]c1=S 1.58 µM [activator, full curve, poor fit]
CCN1CCN(C(=O)CS(=O)Cc2nc(-c3ccc(OC)cc3)oc2C)CC1 (stereo not given) 11.2 µM [inhibitor, single point]
O=C(c1ccco1)N1CCN(S(=O)(=O)c2cccc(C(F)(F)F)c2)CC1 1 µM [inhibitor, single point]
COc1ccc(Cl)cc1NC(=O)NCCN1CCCCC1 50.1 µM [inhibitor, single point]
O=C(NCCc1ccccc1)c1oc2ccccc2c1COc1ccccc1 2.51 µM [inhibitor, full curve, poor fit]
CCN(CC)c1ccc(/C=N/Nc2nc(C)cc(=O)[nH]2)c(O)c1 50.1 µM [inhibitor, single point]
Cc1nn2c(N3CCN(C(=O)c4ccco4)CC3)cc(C(C)(C)C)nc2c1-c1ccccc1 35.5 µM [inhibitor, single point]
O=C1CCC(C(=O)OCC(=O)C23CC4CC(CC(C4)C2)C3)N1 (stereo not given) 56.2 µM [inhibitor, single point]
COc1ccccc1NC(=O)CSc1nncn1-c1cccnc1 14.1 µM [inhibitor, partial curve, poor fit]
Cn1c(=O)c2cn(-c3ccc4c(c3)OCCO4)cc2n(C)c1=O 7.94 µM [activator, single point]
CC(=O)Nc1ccc(SCC(=O)N(C)C2CCS(=O)(=O)C2)cc1 (stereo not given) 28.2 µM [inhibitor, single point]
COc1ccc(CCN2C(=NC(=O)CC(C)C)SC3CS(=O)(=O)CC32)cc1 (stereo not given) 50.1 µM [inhibitor, partial curve]
COc1ccc(-n2ncc3c(Nc4cccc(C)c4)ncnc32)cc1 56.2 µM [inhibitor, single point]
COc1cc2c(=O)n(CC3CCCO3)c(=O)n(CC(=O)Nc3cccc(Cl)c3)c2cc1OC (stereo not given) 1.78 µM [inhibitor, full curve, poor fit]
CSc1nc(C)[nH]c(=O)c1C#N 0.282 µM [inhibitor, full curve, poor fit]
CC(C)(C)c1ccc(C(=O)NCCCN2CCN(CCCNC(=O)c3ccc(C(C)(C)C)cc3)CC2)cc1 25.1 µM [inhibitor, partial curve]
CCOC(=O)N1CCC2(CC1)C(C(=O)C13CC4CC(CC(C4)C1)C3)C2(C#N)C#N (stereo not given) 11.2 µM [inhibitor, single point]
CCCN1C2CCCC1CC(NC(=O)c1ccccc1F)C2 (stereo not given) 11.2 µM [inhibitor, single point]
Cc1ccc(S(=O)(=O)N2CCN(C(=O)CSc3nnc(-c4ccco4)o3)CC2)cc1 39.8 µM [inhibitor, partial curve]
CCN(CC)C(=O)c1sc2c(c1C)c(=O)n(-c1ccc(OC)cc1OC)c(=O)n2CC(=O)c1ccccc1 14.1 µM [inhibitor, partial curve]
O=C(CN1CCN(c2ccccc2O)CC1)Nc1ccc([N+](=O)[O-])cc1Br 50.1 µM [inhibitor, single point]
CC(C)CCNC(=O)NC(=O)CSc1nnc2ccccn12 3.16 µM [inhibitor, partial curve, poor fit]
O=C(CSc1nc(C2CC2)nc2ccccc12)N1c2ccccc2Sc2ccccc21 4.47 µM [inhibitor, full curve]
Nc1ccccc1S(=O)(=O)c1ccccc1N 7.08 µM [inhibitor, full curve, poor fit]
Cc1ccc(CN2C(=O)/C(=C\c3ccc(C(=O)NCc4cccnc4)cc3)Oc3ccccc32)cc1 44.7 µM [activator, single point]
Cc1ccsc1C(=O)C1CCCN(Cc2cn(C)nc2-c2ccccc2)C1 (stereo not given) 0.158 µM [inhibitor, full curve, poor fit]
Cc1c(C(=O)NCc2cccnc2)oc2ccccc12 50.1 µM [inhibitor, single point]
Brc1ccc2[nH]c3c(NCc4ccccn4)ncnc3c2c1 11.2 µM [inhibitor, single point]
Fc1ccccc1/C=N/Nc1nn[nH]n1 44.7 µM [inhibitor, single point]
Cc1ccc(S(=O)(=O)N2CCN(CC(=O)Nc3ccc([N+](=O)[O-])cc3)CC2)cc1C 25.1 µM [inhibitor, partial curve, poor fit]
CCCCOc1ccc(C(=O)N/C(=C/C=C/c2ccccc2)C(=O)NC)cc1 11.2 µM [inhibitor, full curve]
COc1ccc(S(=O)(=O)NC2CCCCC2)cc1C 1.26 µM [inhibitor, full curve, poor fit]
O=C1CC(=C(c2ccccc2)c2ccccc2)C(=O)N1CCCCN1CCN(c2cccc(Cl)c2)CC1 11.2 µM [inhibitor, full curve, poor fit]
Cc1ccc(C(=O)C2OC(=O)C(C)(C)C(=O)C2(C)C)cc1 (stereo not given) 3.98 µM [inhibitor, partial curve, poor fit]
O=C(Nc1cccc(F)c1)N(Cc1ccc(Cl)cc1)CC(O)C(F)(F)F (stereo not given) 35.5 µM [inhibitor, partial curve]
CSc1ccc(OC2CCN(Cc3ccccc3)CC2)cc1 31.6 µM [inhibitor, single point]
O=C(Nc1nnc(-c2cccc(F)c2)s1)Nc1ccccc1F 5.62 µM [activator, full curve]
C=CCSc1n[nH]c2nc3c(c(=O)n12)C1(CCCC1)Cc1ccccc1-3 44.7 µM [activator, partial curve]
CC(C)c1ccc(NC(=O)NC2CCN(CC(=O)Nc3cccc4ccccc34)CC2)cc1 25.1 µM [inhibitor, single point]
OCCCc1nc2n(n1)C(c1ccccc1Cl)C=C(c1cccs1)N2 (stereo not given) 0.447 µM [inhibitor, partial curve, poor fit]
O=C(Cc1ccc(F)cc1)NCc1cccnc1 1.12 µM [inhibitor, full curve]
